The campaign covered roughly 48,000 compounds. About 120 (0.25%) were called active. Not shown: some 4% with an inconclusive outcome. Calls come from the whole dose curve; as a rule, active = well fitted activation curve with a large enough effect; inconclusive = small, poorly fitted or top-dose-only effect, or another doubt; inactive = no such curve, though single readings can be large or run the other way. The list shows a part of the results.
Experiment: Primary qHTS for Identification of Small Molecule Activators of Huntingtin-Antisense Promoter Activity; note: nearly all actives have a fitted effect of over 55% in size
Conditions: HEK293 HTT-AS promoter firefly luciferase reporter, 24 h; series mostly up to 57.5 µM; activity change, positive = activation: at the top concentration
Outline: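 Firefly luciferase signal from promoter-reporter HEK293 cells was scaled between vehicle (0%) and zero RLU (-100%). Compounds were tested at final concentrations of up to 57.5 uM over 24 h at 37 degrees C. PTC124 at 50 uM final served as control inhibitor.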

Structure (SMILES) | activity change, positive = activation
Cc1c(F)c(N2CCNC(C)C2)cc2c1c(=O)c(C(=O)O)cn2C1CC1 (configuration not stated) | inactive: -7.04%
COc1ccc(N2CC(C(=O)NCc3nnnn3-c3ccc(C)c(C)c3)CC2=O)cc1 (configuration not stated) | inactive: -5.39%
Cc1cccc(N2C(=O)CSC23C(=O)N(CC(=O)NCc2ccccc2Cl)c2ccccc23)c1 (configuration not stated) | inactive: -15.9%
COc1ccccc1NC(=O)Cn1c(=O)c(CNc2ccc(C)cc2)cc2cc3c(cc21)OCCO3 | inactive: 0.253%
COc1ccc(CCNC(=O)C(=O)NCC(c2ccco2)S(=O)(=O)c2ccccc2)cc1 (configuration not stated) | inactive: -19.6%
O=C(Cn1c(SCCOc2ccc(Cl)cc2)nc2ccccc21)N1CCCCC1 | inactive: -31.4%
COc1ccc(-c2nnc3n2N(C(C)=O)C(c2ccc(Cl)c(Cl)c2)=C(C(C)=O)S3)cc1 | inactive: -0.966%
CCN(C(=O)Cn1cnc2onc(-c3ccc(F)cc3)c2c1=O)c1ccc(OC)cc1 | inactive: -25.9%
CCOc1ccc(NC(=O)Cn2c(=O)c(CNc3ccc(CC)cc3)cc3cc4c(cc32)OCO4)cc1 | inactive: 1.73%
Cc1oc2ncn(CC(C)C)c(=O)c2c1C(=O)NC(C)c1ccccc1 (configuration not stated) | inactive: -32.4%
Cc1cc(C)c2nc(NC(=O)c3ccc(S(=O)(=O)N4CCc5ccccc54)cc3)sc2c1 | inactive: -23.2%
Cc1ccc(CNc2ncnc3onc(-c4ccc(F)cc4)c23)cc1 | inactive: -37.9%
COc1ccc(C(=O)Nc2ccc3c(c2)CCCN3C(=O)c2cccs2)c(OC)c1 | inactive: -32.4%
COc1cc(OC)c(NC(=O)N2CCCn3nc(C)cc32)cc1Cl | inactive: -5.09%
Cc1cccc(-n2ccnc2SCC(=O)Nc2cccc3ccccc23)c1C | inactive: -32.4%
COCCn1c(C)cc(O)c(C(c2ccccc2)N2CCN(c3ccccc3)CC2)c1=O (configuration not stated) | inactive: 1.28%
COc1ccc(-c2nnc(SCC(=O)NC3CCCCC3)nc2-c2ccc(OC)cc2)cc1 | inactive: -12.3%
O=C(Cn1c(=O)n(Cc2ccc3c(c2)OCO3)c(=O)c2oc3ccccc3c21)Nc1ccccc1F | inactive: -14%
O=C(NCc1nc2ccccc2[nH]1)c1c(F)cccc1F | inactive: 5.75%
Cc1cccc(-n2c(C)nc3cc(C(=O)NCCC4=CCCCC4)ccc32)c1 | inactive: 14.1%
Cc1ccc(/C=C/c2onc(C)c2S(=O)(=O)N2CCC(C(=O)N3CCN(c4ccccc4F)CC3)CC2)cc1 | inactive: -15.9%
COc1ccc(NC(=O)CCNS(=O)(=O)c2cccc3nsnc23)cc1Cl | inactive: -14.4%
O=C(NCCc1ccccc1Cl)c1ccc2c(=O)n(-c3ccccc3)c(=O)[nH]c2c1 | inactive: -34.1%
CCCS(=O)(=O)N1CC(=O)N(c2ccc(C)cc2)C(C)(C(=O)NC2CCCCCC2)C1 (configuration not stated) | inactive: -12.5%

Structure (SMILES) | activity change, positive = activation
COc1ccc(CCNC(=O)c2cc3sccc3n2Cc2ccc(Cl)cc2)cc1OC | inactive: -33.8%
CCOc1ccccc1CN1CCc2nc(Nc3ccc4c(c3)OCCO4)ncc2C1 | inactive: -20.3%
O=C(CSc1nc(Nc2ccc(F)cc2)c2ccccc2n1)c1ccc(F)cc1 | inactive: -23.7%
COc1cc2ncn(-c3cc(OCc4ccccc4S(C)(=O)=O)c(C#N)s3)c2cc1OC | inactive: -20.1%
CC(=O)Nc1ccc([C@H](C)C(=O)Nc2ncc(C(C)C)s2)cc1 | inactive: -19.1%
CCc1ccc(NC(=O)CCCc2nnc3n(CC(C)C)c(=O)c4sccc4n23)cc1 | inactive: -12.6%
O=C(Nc1c2c(nn1-c1ccc(Cl)cc1)CS(=O)(=O)C2)c1cccc(F)c1 | inactive: -16.9%
CC(C)CN(CC(C)C)S(=O)(=O)c1ccc(C(=O)Nc2sc3c(c2C(N)=O)CC(C)(C)NC3(C)C)cc1 | inactive: -32.3%
COC(=O)c1ccc(C2c3c(-c4ccccc4O)n[nH]c3C(=O)N2Cc2ccncc2)cc1 (configuration not stated) | inactive: 6.01%
COc1ccc(-c2nc(CNS(=O)(=O)c3ccc(Br)cc3)cs2)cc1 | inactive: -28.5%
CC(C)c1nn2c(=O)cc(COC(=O)c3ccccc3NC(=O)COc3ccccc3)nc2s1 | inactive: 0.446%
CCOc1ccccc1NC(=O)c1c(NCc2cccs2)sc2c1CCC(C)C2 (configuration not stated) | inactive: -6.74%
Cc1nnc(NC(=O)CSc2nccn2Cc2ccc(F)cc2)s1 | inactive: -19.9%
CC(=O)Nc1ccc(S(=O)(=O)NCCc2cn3ccsc3n2)cc1 | inactive: -12%
CCC(=O)N1CCc2cc(OC)c(OC)cc2C1COc1ccccc1OC (configuration not stated) | inactive: -18.4%
Cc1cccc(OCc2ccc(-c3nc(C#N)c(NCc4cccnc4)o3)o2)c1 | inactive: -18.3%
O=C(CSc1nc(-c2cccc(F)c2)[nH]c1-c1ccccc1)Nc1ccc2c(c1)OCCO2 | inactive: -16.8%
CCc1cccc(NC(=O)CN2Cc3ccccc3C2=O)c1 | inactive: -9.96%
COc1ccc(-c2cc(C)no2)cc1S(=O)(=O)NCc1cccs1 | inactive: -20%
CCOc1ccc(C2CC(=O)Nc3cc4c(cc32)OCO4)cc1OC (configuration not stated) | inactive: -30.5%
COc1cc(CNC(=O)C2CCCCN2S(=O)(=O)c2ccc(F)cc2)cc(OC)c1OC (configuration not stated) | inactive: 16.7% [at 11.5 µM, percent change from vehicle, -100% = no light]
CCOC(=O)c1c(S(=O)(=O)N2CCCC(C(=O)Nc3ccccn3)C2)c(C)n(C)c1C (configuration not stated) | inactive: 9.6%
Cc1ccc(CNC(=O)C2CCN(S(=O)(=O)c3ccc(F)cc3)CC2)cc1 | inactive: 6.16%

— PubChem BioAssay AID1508624 (National Center for Advancing Translational Sciences (NCATS), 2021)
